Reference: the RNAGym collection of RNA variant scans (doi:10.7554/elife.90254)
The source gives no read counts; variants with many changes may rest on few reads.

B1: LINE1-mini (parent)
chain: GGCAGAGCUCAACACAGCGUGGCAAAGUGGCUGUGGCUAGACUGCC

Variants of: B1
Assay: self-cleavage, relative activity (ratio to wild type); higher = more cleavage; in vitro, sequencing; the parent is a self-cleaving ribozyme

Variant	self-cleavage
GGCAGAGCUCAAAACGGAAUGGCAAAGUGGUUGUGGCUAGACUGCG	0.01
UACAGAGCUCAACAUAGCGUGGCAAAGUGGCUGUGGCUAGACUCCC	0.1
GGCAGAACUGAACACAGCGUGCCAAAGUGGCUGUGGCUAGACUGCC	0.02
GGCAGAGGUCAACGCAGCGUGGCAAAGUGGCUCUGGCUAGAGCGCC	0.03
GGCAGAGCUCAACACAGCGUGGCAGAGUGGCUGGGGCUAGACUGCA	0.04
GGCAGAGCUCAACUCAGCGUUGCAAAGUGGCUGUGGAUACACUGCC	0.04
GGCAGAGCUCGACACAGCGUGGCAAAGUGGCUGUGGCAAUACUGCC	0
GGCAGAGCUCAACACAGCGUGGCAAAGUGGCCGUGGAUAGCCUGCC	0.08
GGCAGAGCUUAACACAGCGUGGCAAAGUGGCGGUGGCUCGACUGCC	0.06
GGCAGAGCUCUAUACAGCGUGGCCAAGUGACUGUGGCUAGACUGCU	0.01
GGCUGAGCUCAACACAGCGUGGCAAAGUGGCUGUGUCUACAUUGCC	0.1
GACAGAGCGCAACAUAGCGUGUCAAAGCAGCUGUGGCUAGACUGCC	0.34
GGCAGAGCUCAACACGGAGUGGCAAGGUUGCUGUAUCUAGACUGCC	0.04
UGCAGAGCUAAACACAGCGUGUCAAAGUGGCUGUGGCUAGACUGCC	0.06
GGUUGAGCUCAAAACAGCGUGGCAAAGUGGCUGUGUCUAGACUGCC	0.12
GGCAUAGCUCAGCAGAGCGUGGCAAAGUGGCUGUGGCUAGACUGUC	0.03
GGCAGAGCUCAACACAGCGUGUCAAAGAGGCUCUGGCUAGACUGCC	0.04
GGCAGAGCUCAACACAGCGUGGGAAAGUGGCUGUGAAUAGACUGCC	0.01
GGCAGAGCUCAUCACAGCUUGGCAAAGUGGCUGUGGCUAGACUCCC	0.09

Variant	self-cleavage
GGCAGAGCUCGACACAGCGUGGCAAAGUGGCUGUGGCUAGGCUGCA	0.02
GACAGAGCUCAACACAGCGUGGCAAACUGACUGUGGCUAGACUGCC	1.19
GGCAGAGGUCAAGACAGCGUGGCAUAGUGGCUGUGGCUUGACUGCA	0.1
GGCAGAGCGCAACACAGCGUGGCAAAGUGGCUAUGGAUAGACUGCC	0.03
GGCAGCGCUCGACACAGCGUGGCAAAUUGGCUGUGUCUAGAGUGGC	0
GGCAGAGCGGAACACAGCGUUGCAAAGUGGCUGUGGCUAGACUGCC	0.03
GGGAGAGCUCCACACAGCGUGGCAAAGUGGCUGUGGCUAGACUCCC	0.12
GGCAGAGCUUCACACAGCGUGGGAAAUUGGCUGUAGCUAGACUGCC	0.01
GGCAGAGCUCAACACAGCGUUGCAAGGUCGCUGUGGCUAGACUGCC	0.55
AGCAGAGCUCAGCACAGCGUGGCAGAGUGGCUGUGGCUAGACUGCC	0.04
GGCCGAGCUAAACACAGCGUGGCAAAGGGGCGGUGGCUAGACUGCC	0.02
GGCAUAGCUCAACACAGCGUGUCAAAGUGGCAUUGGCUAGACAGCC	0.03
GGCAGAGCUCAACACAGCGUGGCAAAGUAGCUGUGCAUAGACUGCC	0.13
GGCAGAGCACAACCCAGAGUGGCAAAGUGGGUGUGGCUAGACUGCC	0
GGCAGAGCUCAACACAGCGCGGCAAAAUGGCUGGGGCUAGACUGCC	0.07
GGCAGAGCUCAACACAGCGUGCCAAAGUAUCUGUGGCUAGACUGCC	0.36
GGUAGAGCUCAACACAGCGUGCCAAAGUGGCUCUGGCUAGACUGCC	0.01
GGCAGAGCUCAACACAACGUGGCAAAGUGGCUGUGGCUAGACCGGC	0.03
GGCAUACCUCAACGCAGCGUGGCAAAGUGGCUGUGGCUAGACUGCC	0.08

Variant	self-cleavage
GGCAGAGCUCAACUCAGCGUAGCAAAGUGGCUGUGGCUCGACUGCC	0.17
GGCAGAGAUCAACACAGCGUGGGAAAGUGGCAGUGGCUAGACUGCC	0.19
GGCAGGGCUCAACACAGUGUGGCAGAGUGGCAGUGGCUAGUCUGCC	0.03
GGCAGAGACCAGCACAGCGUGGCAAAGUGGCUGUGACUAGACUGCC	0.06
GGCAGGGCUCAACACAACGUGGCAAAGUGGCUGUGGCUAGACUUCC	0.05
GGCAGAGCACAACACAGCUUGGCAAAGUGGCUGUGGCUAGACUGGC	0.29
GGCAGAGCUCAACACAGCGUUGCAAAGUGGCUGUGGAUAGACCGCC	0.03
AGCAGAGCUCAACACAGCUUGGCGAAGCGGCUGUGGCUAGACUGCC	0.1
GGCAGAGAUCAACACAACGUGGCAAAGUGGCUGUGGCUAUACUGCC	0.25
GGAAGAGAUCAACCCAGCGAGGCAAAGUAGCUGUGGCUAGACUGCC	0.06
GUCAGAGCUCUACACGGCGUGGCAAAGUUGCUGUGGCUAGACUGCC	0.03
GGCAGAGCUGAACACAGCGUUGCAAAGUGGGUGUGGCUAGACUGCC	0.09
GGCAGAGCUCAACACAGCGUGGCAGAGUUGCUGUGGAGAGACUGCC	0.01
GGCGGAUCUCAACACAGCUUGGCAAAGUGGCUGUGGCUAAACUGGC	0.08
GGCAGACCUCAAGACAGCGUGGCAAAGUGGCUGUGGCUAGACAGCC	0.01
GGCAGAGCUCAACACAGCGUGGCAAAGCGGCUCAGGCUAGCCUGAC	0.06
GGCAGAGCUCAACACAGCGCGGCAAAAUGGCCGUGGCUAGACUGCU	0.03
GGUAGAGGUCAACAAAGUGUGGCAAAGUGGCUGUGGCUAGACUGCC	0.03
